In publication PMC4336329 (PLoS ONE, 2015):
Among all 310,000 compounds or so, about 2,200 (0.71%) showed an effect of 50% or more. Effects have a minus sign here. The list shows a part of the results.

What follows are molecules tested against human ether-à-go-go-related gene (hERG) potassium channel (human, UniProt Q12809) (assay: primary screen, population patch clamp on CHO cells stably expressing hERG).
Chain of human ether-à-go-go-related gene (hERG) potassium channel (Q12809 whole entry, looked up): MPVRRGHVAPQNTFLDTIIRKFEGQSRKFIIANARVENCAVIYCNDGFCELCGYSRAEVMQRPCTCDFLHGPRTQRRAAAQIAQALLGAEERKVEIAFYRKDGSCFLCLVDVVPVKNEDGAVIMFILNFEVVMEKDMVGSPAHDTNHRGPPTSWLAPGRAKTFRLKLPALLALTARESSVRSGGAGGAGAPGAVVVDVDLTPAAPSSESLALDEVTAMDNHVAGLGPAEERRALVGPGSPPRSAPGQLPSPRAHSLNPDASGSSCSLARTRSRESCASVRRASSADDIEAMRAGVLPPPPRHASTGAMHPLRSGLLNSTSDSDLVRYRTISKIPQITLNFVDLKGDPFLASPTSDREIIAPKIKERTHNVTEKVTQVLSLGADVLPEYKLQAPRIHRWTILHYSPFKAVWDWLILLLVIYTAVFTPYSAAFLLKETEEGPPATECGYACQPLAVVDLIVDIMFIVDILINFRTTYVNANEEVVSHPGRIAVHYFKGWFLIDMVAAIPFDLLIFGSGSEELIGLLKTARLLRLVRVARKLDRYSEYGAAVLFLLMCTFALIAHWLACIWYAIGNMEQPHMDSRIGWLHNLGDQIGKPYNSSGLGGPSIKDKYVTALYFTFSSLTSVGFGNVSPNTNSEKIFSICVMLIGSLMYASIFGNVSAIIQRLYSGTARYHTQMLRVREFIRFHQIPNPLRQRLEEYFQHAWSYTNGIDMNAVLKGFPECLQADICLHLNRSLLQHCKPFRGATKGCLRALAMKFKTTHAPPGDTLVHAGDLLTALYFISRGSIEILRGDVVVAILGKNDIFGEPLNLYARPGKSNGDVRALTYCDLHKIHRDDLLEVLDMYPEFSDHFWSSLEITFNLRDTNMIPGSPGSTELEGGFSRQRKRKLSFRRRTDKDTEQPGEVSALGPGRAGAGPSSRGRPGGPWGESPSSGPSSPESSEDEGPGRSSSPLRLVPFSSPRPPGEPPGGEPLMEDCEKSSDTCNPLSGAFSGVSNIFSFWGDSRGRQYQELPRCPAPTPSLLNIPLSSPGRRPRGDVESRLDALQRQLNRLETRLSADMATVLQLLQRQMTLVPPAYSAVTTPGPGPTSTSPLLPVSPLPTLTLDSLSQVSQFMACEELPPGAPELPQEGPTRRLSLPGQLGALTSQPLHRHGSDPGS

SMILES	hERG current change (%, negative = inhibition) at 1uM [%]
O=C(CN1CCN(S(=O)(=O)c2ccc(Cl)s2)CC1)N1CCOCC1	17
CCN(CC(=O)Nc1ccc(Cl)c(S(=O)(=O)N(C)C)c1)CC(=O)NC(C)C	10.8
Cc1ccc(S(=O)(=O)Nc2ccc3c(c2)nc2n3CCN(Cc3ccccc3)C2)cc1	-0.623
COC(=O)c1cc(-c2c(C)oc3cc(O)ccc3c2=O)c(C)o1	-1.42
O=C(Cn1c(-c2ccccc2)c[n+]2ccsc12)c1ccc([N+](=O)[O-])cc1.[Br-]	-9.66
COc1ccc(S(=O)(=O)N2CCOC23CCN(S(=O)(=O)c2ccc(C)cc2)CC3)cc1	12.8
C[C@@H]1NC(=O)N(c2ccc(F)cc2)C1=O	5.66
CCOCCCNC(=O)c1cc(C)nn1-c1ccccc1	14.2
Nc1nnc(SCC(=O)OCC(=O)Nc2ccccc2)s1	6.12
O=C(c1ccccc1C(=O)N1CCN(c2ccccc2F)CC1)N1CCN(c2ccccc2F)CC1	12.8
Cn1cc(SCC(=O)Nc2ccc3c(c2)OCCO3)c2ccccc21	1.96
Cc1ccc(CN2CC3CC(C2)c2cccc(=O)n2C3)cc1 (centres unmarked)	10.5
O=C(CCN1CCCCO1)N1CCCC(Nc2cccc(F)c2)C1 (centres unmarked)	11.2
Cc1ccccc1OCC(=O)NNC(=S)NC(=O)c1ccco1	8.12
Cc1cccc(NC(=S)NC2CC3CCCC(C2)N3CC(C)C)c1 (centres unmarked)	-13.6
Cc1ccc(C(=O)Nc2ccc(C(F)(F)F)n(C)c2=O)cc1	9.37
CSc1nc(Sc2ccc(Cl)cc2)c2ccccc2n1	17.6
CC(=O)N1c2ccc(S(=O)(=O)NCCC(=O)N(C)Cc3ccccc3)cc2CC1C (centres unmarked)	18.8
Cc1ccc(S(N)(=O)=O)cc1NC(=O)/C=C/c1cccs1	0.562

SMILES	hERG current change (%, negative = inhibition) at 1uM [%]
Cc1cccc(-c2noc(CN(C(=O)c3ccc(Br)o3)C(C)C)n2)c1	12.3
Cc1cc(C[n+]2ccccc2)c2nsnc2c1.[Cl-]	12.6
CSc1nc(C)cc(C)c1C#N	2.01
CCC(=O)Nc1cccc(NC(=O)c2ccc3c(c2)OCO3)c1	12.2
CCc1nc2sc3c(c2c(=O)n1N)CC(C)(C)OC3	8.43
Cn1nc(OCCOc2ccccc2)ccc1=O	2.13
COc1ccc(-c2cc(C(=O)Nc3cccc(S(=O)(=O)NCc4ccco4)c3)c3ccccc3n2)cc1OC	12.4
O=C(CCNS(=O)(=O)c1ccccc1)NNC(=O)COc1ccc(Cl)cc1	6.88
Cc1ccc(SCCC(=O)NCCSCc2ccco2)cc1	13.5
CCNC(=O)C1CCCN1S(=O)(=O)c1ccc(OC)cc1 (centres unmarked)	15.9
C#CCOCCOCCOCCNc1nc(N2CCN(C(=O)CCCCCCCCCCNC(=O)[C@H]([C@@H](C)CC)n3cc(CCCCCN)nn3)CC2)nc(N2CCN(C(=O)CCCCCCCCCCNC(=O)[C@H](CO)n3cc(CCCCCN)nn3)CC2)n1	7.07
CSC1=NCCN1S(=O)(=O)c1ccc(C)cc1	-1.21
COCC1CCCN(Cc2cn(Cc3ccccc3)nc2-c2cc3ccccc3o2)C1 (centres unmarked)	-0.957
Cc1sc2ncnc(NCCCn3ccnc3)c2c1C	-16.7
CCC(C)[C@H](NC(=O)NCCCc1ccccc1)C(=O)OC (some centres unmarked)	-8.66
C[N+]1(C2CCC3CCCC2C3O)CCCCC1.[I-] (centres unmarked)	9.43
CC(C)[C@H](NC(=O)NCc1ccc(Cl)cc1)C(=O)O	-3.22
Cc1cc(OCCCCN2C(=O)NC(C)(C)C2=O)cc(C)c1Cl	3.1
COC(=O)C1=CO[C@@H](C)[C@@H]2CN3CC[C@]4(C(=O)Nc5ccccc54)[C@@H]3C[C@H]12	16

SMILES	hERG current change (%, negative = inhibition) at 1uM [%]
CCN(C(=O)c1cn(C)c(=O)c2cc(OC)c(OC)cc12)c1cc(C)ccc1C	8.54
CCNc1nc(N2CCCCC2)nc(-n2nnc(C(=O)OCC)c2C)n1	-3.97
CCOC(=O)c1sc2ncn(/N=C/c3cccnc3)c(=O)c2c1C	4.29
CC(C)(C)C1c2[nH]c3ccccc3c2CCN1CCCn1cccn1 (centres unmarked)	4.68
CC(=O)c1c(C)oc2c1cc(NS(=O)(=O)c1ccc(C(=O)O)cc1)c1ccccc12	12.8
CN(C)CCOc1cccc(Br)c1.O=C(O)C(=O)O	8.19
CN(C)c1ccc(/C=N/NC(=O)c2cccc(N3CCCC3=O)c2)cc1	9.17
NC(=O)Cc1ncc(C(F)(F)F)cc1Cl	8.42
CN(CC(=O)Nc1ccc(Cl)cc1)C(=O)CCC1CCCC1	5.68
CCn1c(SCC(=O)c2ccc(Cl)cc2)nnc1C(C)C	8.32
Cc1nn(C)c(C(=O)Nc2ccc(Cn3cccn3)cc2)c1[N+](=O)[O-]	0.851
O=C(Oc1cc(=O)oc2c1c(=O)n1c3c(cccc23)CC1)c1ccccc1	10.1
O=c1cc(N2CCC(Cc3ccccc3)CC2)[nH]c(=O)n1C1CCCCC1	12.8
Cc1ccc(CN2CCN(Cc3ccc4ncccc4c3)CC2CCO)cc1 (centres unmarked)	-20.5
O=C(Nc1cccc(Cl)c1)C1C2C=CC3(O2)C1C(=O)N(CCCN1CCCCC1)C3C(=O)NC1CCCCC1 (centres unmarked)	8.83
O=C(O)c1cc(-c2ccc(Cl)cc2)n(-c2ccc(Cl)cc2)n1	20.1
CC(=O)N(CCC(Cc1ccccc1)c1ccc2c(c1)OCO2)Cc1ccccc1F (centres unmarked)	12.8
Cc1ccc(C2(COC(=O)C(C)C)CO2)c(OC(=O)C(C)C)c1 (centres unmarked)	5.64
